{"source": "the RNAGym collection of RNA variant scans (doi:10.7554/elife.90254)", "parents": {"B1": {"name": "LINE1-mini (parent)", "chain": "GGCAGAGCUCAACACAGCGUGGCAAAGUGGCUGUGGCUAGACUGCC"}}, "note": "The source gives no read counts; variants with many changes may rest on few reads."}
{"variants_of": "B1", "assay": "self-cleavage, relative activity (ratio to wild type); higher = more cleavage; in vitro, sequencing; the parent is a self-cleaving ribozyme"}
{"variant": "AGCAGAGCUCAACACAGCGUGGGAAAGUGGUUGUGGCUAGACUGCC", "note": "[G1A C23G C31U]", "self-cleavage": 0.13}
{"variant": "AGCAUAGCUCAACACAGCGUGGCAAAGUGGCUGUGGCGAGACUGCC", "note": "[G1A G5U U38G]", "self-cleavage": 0.03}
{"variant": "AGCAUAGCUCAACAAAGCGUGUCAAAGUGGCUGUGGCUAGACUGCC", "note": "[G1A G5U C15A G22U]", "self-cleavage": 0.06}
{"variant": "AGCAGAGCUCAACACAUCGUUGCAAAGCGGCUGUGGCUUGACGGCC", "note": "[G1A G17U G21U U28C A39U U43G]", "self-cleavage": 0.04}
{"variant": "AGCAGAGCUCAACAAAGCGUGGCAAAGUGGCUCUGGCUAGACUGCC", "note": "[G1A C15A G33C]", "self-cleavage": 0.08}
{"variant": "AGCAUAGCUCAACACAGCGUGUCAAAGUGGCUGUGGCUAGACUGCC", "note": "[G1A G5U G22U]", "self-cleavage": 0.07}
{"variant": "AGCAUAGCUCAACACAGCGUGACAAAGUGGCUGUGGCUAGACUGCC", "note": "[G1A G5U G22A]", "self-cleavage": 0.06}
{"variant": "AGCAGAGCUCAACACAGAGUAGCAAAGUGGCUGUGGCUAGAAGGCC", "note": "[G1A C18A G21A C42A U43G]", "self-cleavage": 0.03}
{"variant": "AGCAGAGCUCAACACAUCGUUGCAGAGUGCCUGUGGCUAGACUGCC", "note": "[G1A G17U G21U A25G G30C]", "self-cleavage": 0.2}
{"variant": "AGCAGAGAUGAUCACAGCGUGGCAAAGUGGCUGUGGCUAGACUGCC", "note": "[G1A C8A C10G A12U]", "self-cleavage": 0.02}
{"variant": "ACCAGAGCUCUACACAGCGUGGCAAACUGGCUGUGGCUAGACUGCC", "note": "[G1A G2C A11U G27C]", "self-cleavage": 0.02}
{"variant": "AGCAGAGCUUAACAAAGCGUGCCAAAGUGGCUGUGGCUAGAUUGUC", "note": "[G1A C10U C15A G22C C42U C45U]", "self-cleavage": 0.02}
{"variant": "AGCAGAGCUCAACACAGAGUGGCAAACGAGCUGUGGAUAGACUGCC", "note": "[G1A C18A G27C U28G G29A C37A]", "self-cleavage": 0.05}
{"variant": "AGCAGACCUGCACACAGCGUGGCAAAGUGGCUGUGGUUAGACUGUU", "note": "[G1A G7C C10G A11C C37U C45U C46U]", "self-cleavage": 0.02}
{"variant": "ACCAGGGGUCCAAACAGUGUGGCAAAGUGAUUGUGGCUAGACUGCC", "note": "[G1A G2C A6G C8G A11C C13A C18U G30A C31U]", "self-cleavage": 0}
{"variant": "AGCAGAGCUCAACAUAGCGUGGCAAAGUGGCAGUGGCUAAACUGCC", "note": "[G1A C15U U32A G40A]", "self-cleavage": 0.04}
{"variant": "AGCAGAGCUCAACACAGUGUGGCAAAGUGGCUGUGGCUGGACUGCC", "note": "[G1A C18U A39G]", "self-cleavage": 0.06}
{"variant": "AGCAGAGCUCAACACAGCGUGGAAAAGUGCCUGUGGCUAGACAGCC", "note": "[G1A C23A G30C U43A]", "self-cleavage": 0.08}
{"variant": "AUCAGAGCUCAACACAGUGUGGCAAAGUGACCGUGGCUAGACUGCC", "note": "[G1A G2U C18U G30A U32C]", "self-cleavage": 0.09}
{"variant": "AGCAGAGCUCAAUACAGCGUGGCAAAGUUGAUGUGGCUAAACUGCC", "note": "[G1A C13U G29U C31A G40A]", "self-cleavage": 0.02}
{"variant": "AGCAGAGCUCAACACAGCGUGGUAAAGUGGCUGUGGCUAGACCGCC", "note": "[G1A C23U U43C]", "self-cleavage": 0.12}
{"variant": "AGCAUUGCUCUACACAGCGUGGCGAAGUGGCCAUGGCUAGACUGCC", "note": "[G1A G5U A6U A11U A24G U32C G33A]", "self-cleavage": 0}
{"variant": "AGCAGAGUUCAAUACAGCGUGUCAAAGCGGCUGUGGCUAGACUGCC", "note": "[G1A C8U C13U G22U U28C]", "self-cleavage": 1.86}
{"variant": "AGCAGAACUCAACACCGCGUGGCAAAGUGGCUGUGGCUAGACGGCC", "note": "[G1A G7A A16C U43G]", "self-cleavage": 0.33}
{"variant": "AGCAGACCUCAAGACAGCGUGGCAAAGUGGCUGUGGGUAGACUGCC", "note": "[G1A G7C C13G C37G]", "self-cleavage": 0.69}
{"variant": "AGCAGAGCUCAAUACAGCGUGGCAAAGUGGCUGUGGCUAGACUACC", "note": "[G1A C13U G44A]", "self-cleavage": 0.06}
{"variant": "AGCAGAGCUCAACACACAGUGGCAAAGUGGCUGUGGCUAGACUGCC", "note": "[G1A G17C C18A]", "self-cleavage": 0.18}
{"variant": "AGCAGAUCUCAACACAGCGUGGCAUAAUGGCUGUGGCUAGACUGCC", "note": "[G1A G7U A25U G27A]", "self-cleavage": 0.07}
{"variant": "AUCAGAGCUCAACACAGUGUGUCAAAGUGGCUGUGGCUAGACUGCC", "note": "[G1A G2U C18U G22U]", "self-cleavage": 0.78}
{"variant": "AACAGAGCUCAACACAGCGUGGCAAAGUGGUUGUGGCUAGACUGCC", "note": "[G1A G2A C31U]", "self-cleavage": 0.48}
{"variant": "AGCAGAGCUCAAUACAGCGUGGCAAAGUAGCUGUGUCCAGAACGCC", "note": "[G1A C13U G29A G36U U38C C42A U43C]", "self-cleavage": 0.04}
{"variant": "AACAGAACUCAACACAUCGUGGCAAAGGGGCCGUGGCUAGUGUGCC", "note": "[G1A G2A G7A G17U U28G U32C A41U C42G]", "self-cleavage": 0.07}
{"variant": "AGCAGAGCUAAACACAGCGUGCCAAAGUGGCUGUGGCUAUACCGCC", "note": "[G1A C10A G22C G40U U43C]", "self-cleavage": 0}
{"variant": "AGCAGAGCUCAAUACAGCGUGGGAAAGUGGCUGUGGCUAGACUGCC", "note": "[G1A C13U C23G]", "self-cleavage": 0.39}
{"variant": "AGCAGAGCUCAACACAGAGUGGCAAAGUGGCUGUCGCUAGCCUACC", "note": "[G1A C18A G35C A41C G44A]", "self-cleavage": 0.01}
{"variant": "AGCAGAGCUAAACAGAGCGUGGCAAAGUGGCAGUGGCUAGACUGCC", "note": "[G1A C10A C15G U32A]", "self-cleavage": 0.03}
{"variant": "AGCAGAGCUGAACACAGCGUUGCAAAGUGGCUGUAGCUAGACUGCC", "note": "[G1A C10G G21U G35A]", "self-cleavage": 0.09}
{"variant": "AGCAGAGCUUAAAACAGCGUGGCAAAGUGGCUGUGGCUAGACUGCC", "note": "[G1A C10U C13A]", "self-cleavage": 0.05}
{"variant": "AGCAGAGCUCAACACAGAGUGGCAAAGUGGCUGUGUCCAGACUGCC", "note": "[G1A C18A G36U U38C]", "self-cleavage": 0.03}
{"variant": "AGCAUAGCUCAAGACAGCGUGGCAAAGUGGCGGUGGCUAGACUGCC", "note": "[G1A G5U C13G U32G]", "self-cleavage": 0.04}
{"variant": "AGCAGAGCUAAACACAGCGUGGCGAAGUGGCUGUGGCUAGACUGCC", "note": "[G1A C10A A24G]", "self-cleavage": 0.06}
{"variant": "AUCAGAGAACAAAACAGCGUGGCAAAAUCGCUGUGGCUAGACUGAC", "note": "[G1A G2U C8A U9A C13A G27A G29C C45A]", "self-cleavage": 0.09}
{"variant": "AGCAGAGCUGAACACAGCGUGGCAAAAUGGCUGUGGCUAGCCUGCC", "note": "[G1A C10G G27A A41C]", "self-cleavage": 0}
{"variant": "AGCAGACCUCAACACAUCGUGGCAAAGUGGCUGUGGCUAGACUGCC", "note": "[G1A G7C G17U]", "self-cleavage": 0.15}
{"variant": "AGCAGAGUUCAACACAUCGUGGCAAAGCGGCUGUUCCUAGACUGCC", "note": "[G1A C8U G17U U28C G35U G36C]", "self-cleavage": 0.19}
{"variant": "AGCAGAGCUCAACACAGCGUGGUAAAGUGGCUGUGGCUCGACUGCC", "note": "[G1A C23U A39C]", "self-cleavage": 0.09}
{"variant": "AGCAGAACUAAACACAGCGUGGCAAAGUGGCUGUAGCUAGACUGCC", "note": "[G1A G7A C10A G35A]", "self-cleavage": 0.12}
{"variant": "AGUAGAGCUCAACACAGCGUGGCAAAGUGGCUGUAGCUAGACUGGC", "note": "[G1A C3U G35A C45G]", "self-cleavage": 0.13}
{"variant": "AGCACAGCUCAACACAGCGUGGCAAAGUGGCUGUGGCUAGAGUGUC", "note": "[G1A G5C C42G C45U]", "self-cleavage": 0.08}
{"variant": "ACCAGAGCUCAACACAGUGUGGCAAAGUGGCUGUGGCUAGACUGCC", "note": "[G1A G2C C18U]", "self-cleavage": 0.04}
{"variant": "AUCAGAGCUCAACAGUGCGUGGCAAAGAGGCUGUGGCUAGACUGCC", "note": "[G1A G2U C15G A16U U28A]", "self-cleavage": 0.01}
{"variant": "AGCAGAGCUCAACACAACGUGGCAAAGUGGCUGUGGCUAGAAUGCC", "note": "[G1A G17A C42A]", "self-cleavage": 0.06}
{"variant": "AACAGAGCUCAAUACAGCGUGGCAAAGUGGCUGUGGCUAGACUGCC", "note": "[G1A G2A C13U]", "self-cleavage": 2.27}
{"variant": "AGCAGAGCUCAAUACAGCGUGGCAAAGUGGCUGUGGCUAGGCUGCC", "note": "[G1A C13U A41G]", "self-cleavage": 0.08}
{"variant": "AGCAGAGCUUAACACAGUGUGGCAAAGUGGCUGUGGCUAGACUGCC", "note": "[G1A C10U C18U]", "self-cleavage": 0.63}
{"variant": "AGCAGAGCUCAACACAUCGUGGCAAUGGGGCUGUGGCUAGACUGCC", "note": "[G1A G17U A26U U28G]", "self-cleavage": 0.34}
